Assay results: PMC9911399, “Two distinct binding modes provide the RNA-binding protein RbFox with extraordinary sequence specificity”
Changes are numbered by the printed parent chain; changes in the protein carry UniProt numbers. Some of the results follow.

B1: UUCUUGU (DNA:RNA)
RNA: GGGAGACCGGAAUUCAGAUUGUCCUUCUUGUUUAAAUCCCGUCGUAGCCACCA
DNA 1: CAATCTGAATTCCGGTCTCCC
DNA 2: TGGTGGCTACGACGGGATT
B2: GUAUCCG (DNA:RNA)
RNA: B1 RNA with U25G, C27A, U29C, G30C, U31G
DNA 1: CAATCTGAATTCCGGTCTCCC
DNA 2: TGGTGGCTACGACGGGATT
B3: ACUCUUA (DNA:RNA)
RNA: B1 RNA with U25A, U26C, C27U, U28C, G30U, U31A
DNA 1: CAATCTGAATTCCGGTCTCCC
DNA 2: TGGTGGCTACGACGGGATT
B4: CAACUAA (DNA:RNA)
RNA: B1 RNA with U25C, U26A, C27A, U28C, G30A, U31A
DNA 1: CAATCTGAATTCCGGTCTCCC
DNA 2: TGGTGGCTACGACGGGATT
B5: AGACGCA (DNA:RNA)
RNA: GGGAGACCGGAAUUCAGAUUGUCCAGACGCAUUAAAUCCCGUCGUAGCCACCA
DNA 1: CAATCTGAATTCCGGTCTCCC
DNA 2: TGGTGGCTACGACGGGATT
B6: GAUGCUA (DNA:RNA)
RNA: B5 RNA with A25G, G26A, A27U, C28G, G29C, C30U
DNA 1: CAATCTGAATTCCGGTCTCCC
DNA 2: TGGTGGCTACGACGGGATT
B7: GCUAAUA (DNA:RNA)
RNA: B5 RNA with A25G, G26C, A27U, C28A, G29A, C30U
DNA 1: CAATCTGAATTCCGGTCTCCC
DNA 2: TGGTGGCTACGACGGGATT
B8: AAUUAUA (DNA:RNA)
RNA: B5 RNA with G26A, A27U, C28U, G29A, C30U
DNA 1: CAATCTGAATTCCGGTCTCCC
DNA 2: TGGTGGCTACGACGGGATT
B9: AGGGGUC (DNA:RNA)
RNA: B5 RNA with A27G, C28G, C30U, A31C
DNA 1: CAATCTGAATTCCGGTCTCCC
DNA 2: TGGTGGCTACGACGGGATT

Target: T1, RBFOX1 RRM RbFoxmut (Fox-RRM*) (Homo sapiens, UniProt Q9NWB1 109-208, R118D;E147R;N151S;E152T)
T1 sequence: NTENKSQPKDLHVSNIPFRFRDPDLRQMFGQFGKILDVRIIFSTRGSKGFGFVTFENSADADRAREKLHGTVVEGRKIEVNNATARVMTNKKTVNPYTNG
Experiment: EMSA; HiTS-Eq, 1 nM pool, 10 min; buffer printed only for the single-RNA assays: 10 mM Tris pH 7.5, 150 mM NaCl, 3.4 mM EDTA, 0.001% NP-40, 30 C
Settings: tags: His6 N-terminal (pET28a); label: 5' 32P
In short: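 Purified RbFox RRM (wild type or mutant) was equilibrated for 10 min in 50 µL with 1 nM of a 5′-radiolabelled pool of RNA with 7 randomized nucleotides, its flanks annealed to DNA oligonucleotides, across increasing protein concentrations. Free RNA was separated by 8% native PAGE, excised, reverse-transcribed, PCR-barcoded and sequenced on an Illumina HiSeq 2500. Relative association constants came from read-count changes of each variant against the control reaction, normalised to the cognate motif.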

Binder	binding signal
B1	0.158 KA relative to UGCAUGU
B2	0.201 KA relative to UGCAUGU
B3	0.0894 KA relative to UGCAUGU
B4	0.117 KA relative to UGCAUGU
B5	0.108 KA relative to UGCAUGU
B6	0.111 KA relative to UGCAUGU
B7	0.102 KA relative to UGCAUGU
B8	0.108 KA relative to UGCAUGU
B9	0.163 KA relative to UGCAUGU
